Measured values reported in PubChem BioAssay AID488969 (Vanderbilt High Throughput Screening Facility, 2010).
In all, about 110,000 compounds were measured (“z-score”: median about -0.1, highest 2% from about 2 on). This is one part of the list.

molecular target: Metabotropic glutamate receptor 8 (Rattus norvegicus) (UniProt P70579); test: rat mGluR8 modulators via GIRK flux, primary screen, cell-based, thallium flux, HTS (AID 488969); conditions: HEK293 rat mGluR8, GIRK (G protein-gated inwardly rectifying potassium channel) thallium flux, FluoZin2; at 10 µM; stronger effect = higher value; submaximal glutamate (EC20) added with thallium
UniProt P70579, sequence (P70579 whole entry, looked up): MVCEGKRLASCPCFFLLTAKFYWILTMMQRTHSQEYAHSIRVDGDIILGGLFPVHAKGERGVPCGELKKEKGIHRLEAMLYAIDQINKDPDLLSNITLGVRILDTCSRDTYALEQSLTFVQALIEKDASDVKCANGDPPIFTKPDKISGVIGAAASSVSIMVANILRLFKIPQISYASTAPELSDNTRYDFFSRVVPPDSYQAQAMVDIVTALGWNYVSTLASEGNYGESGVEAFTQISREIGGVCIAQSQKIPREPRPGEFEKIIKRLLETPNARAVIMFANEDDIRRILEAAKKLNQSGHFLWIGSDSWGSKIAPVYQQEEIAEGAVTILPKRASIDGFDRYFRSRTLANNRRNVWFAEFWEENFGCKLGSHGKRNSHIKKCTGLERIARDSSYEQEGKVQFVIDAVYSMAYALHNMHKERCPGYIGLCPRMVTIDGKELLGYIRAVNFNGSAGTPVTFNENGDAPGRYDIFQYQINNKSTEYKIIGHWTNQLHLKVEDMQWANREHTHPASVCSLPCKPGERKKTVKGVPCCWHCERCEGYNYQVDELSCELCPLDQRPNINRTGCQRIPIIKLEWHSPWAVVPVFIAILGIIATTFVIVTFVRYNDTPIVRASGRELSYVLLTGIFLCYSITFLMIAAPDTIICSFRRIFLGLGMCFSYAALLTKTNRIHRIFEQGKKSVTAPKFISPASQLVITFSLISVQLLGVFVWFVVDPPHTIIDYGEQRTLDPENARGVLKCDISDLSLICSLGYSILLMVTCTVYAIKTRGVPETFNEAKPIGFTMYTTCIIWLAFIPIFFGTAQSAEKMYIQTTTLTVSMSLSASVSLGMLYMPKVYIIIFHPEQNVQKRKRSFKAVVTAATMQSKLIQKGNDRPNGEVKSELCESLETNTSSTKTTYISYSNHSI

SMILES	z-score
COC(=O)c1cc2c(=O)n3ccccc3nc2n(Cc2cccnc2)c1=N	0.851
CNCc1ccc(OCc2ccccc2)c(OC)c1	0.83
Cc1nnc(SCC(=O)NNC(=O)CC#N)[nH]c1=O	0.296
CCC(C)NC(=O)C1CCC(=O)N(c2cc(OC)c(OC)c(OC)c2)C1c1ccc(OC)cc1 (centres undefined)	0.24
Cc1cc(Nc2nc3ccccc3nc2Cl)n(-c2ccccc2)n1	0.00239
CCOC(=O)c1[nH]c2ccc(OC)cc2c1NC(=O)CCN1CCC(C)CC1	-0.426
CCOC(=O)N1CCC(Nc2nc3ccccc3nc2NS(=O)(=O)c2ccc(Cl)cc2)CC1	-2.46
O=C(Nc1ccccc1)c1ccc(NCCc2ccccc2)c([N+](=O)[O-])c1	0.249
CCOC(=O)c1c(-c2ccccc2)nc2ccccn12	-0.275
COCCN1C=C(C(=O)OC)C(c2ccc3c(c2)OCO3)C(C(=O)OC)=C1	-0.336
COc1cc(C(=O)NCc2nnc(SCC(=O)Nc3nc4ccccc4s3)o2)cc(OC)c1OC	-0.227
COc1ccc(C(=O)C2CN(c3ccccc3)CC2c2ccc(Cl)cc2)cc1 (centres undefined)	0.113
Cc1ccc(-n2c(Cc3cccn3C)nnc2SCC(=O)Nc2nnc(C)s2)cc1	0.278
CSc1nnc2n(C)c3c(c(=O)n12)C1(CCCC1)Cc1ccccc1-3	-0.325
Cc1cc(C)n(CC(O)COc2ccccc2)n1 (centres undefined)	0.103
N#Cc1ccc(N2C(=O)[C@@H]3C(C(=O)C(c4ccccc4)c4ccccc4)=NN[C@@H]3C2=O)cc1	-0.128
COc1cc(NS(=O)(=O)c2ccc(C)c(C)c2)c(OC)cc1Cl	0.334
N#Cc1ccc(C(c2nnnn2C2CCCC2)N2CCC(Cc3ccccc3)CC2)cc1 (centres undefined)	-0.213
CC(C)Oc1ccc(C(=O)NC2CCS(=O)(=O)C2)cc1 (centres undefined)	-0.104
Cc1nn(-c2ccccc2)c(C)c1/C=N/NC(=O)c1cc(-c2cccc3ccccc23)n[nH]1	-0.481
CCN(CC)CCNC(=O)C(=O)NCC1OCCN1C(=O)c1ccc2c(c1)OCO2 (centres undefined)	-0.268
O=C(C[n+]1cccc(NC(=O)c2ccccc2)c1)c1ccc(NC(=O)c2ccccc2)cc1	-0.0503
Cc1ccc(-c2nnc(N(C)C(=O)c3ccccn3)s2)cn1	0.498
CC(C)Cc1nn2c(=O)cc(O)nc2s1	-0.352
CCOc1ccc(N=Nc2c(=O)[nH]n3c(=O)cc(C)[nH]c23)cc1	-0.63
COc1ccc(NC(=O)[C@@H](NC(=O)c2ccccc2)C(C)C)cc1S(=O)(=O)N1CCCCC1	-0.331
COc1cc(CNc2ccc(CNc3ncn[nH]3)cc2)cc(Cl)c1OCc1ccccc1	-0.0655

SMILES	z-score
CCOC(=O)CC1=C(C(=O)OCC)C(c2ccncc2)C(C#N)=C(N)O1 (centres undefined)	-0.0524
CCOC(=O)c1ccc(NS(=O)(=O)c2ccc3[nH]c(=O)[nH]c3c2)cc1	0.861
COc1ccc(/C=N/Nc2nc(N3CCCC3)nc(N3CCCC3)n2)cc1O	-2.08
CNC(=O)NC(=O)C(C)OC(=O)c1cc2c(s1)CCCCC2 (centres undefined)	-0.628
COc1ccc(C(C)C)cc1S(=O)(=O)N1CCN(C)CC1	-1.09
Cc1ccc(C)n1-c1sc2c(c1C#N)CCCC2	-0.0485
Cc1ccc(C)n1-c1ccc(-n2cnnn2)cc1	-0.313
O=C(c1ccccc1)c1ccc(OCC(O)CN2CCCCC2)cc1 (centres undefined)	2.13
O=C(NCc1ccco1)c1cc(-c2cccnc2)nc2ccc(Cl)cc12	-1.71
CCCOCC1CC2(SC(=Nc3ccc(C)cc3)NC2=O)C(=O)O1 (centres undefined)	0.399
CC(C)CNC(=O)c1ccccc1NC(=O)Nc1ccccc1	0.337
COC(=O)c1ccc(/C=C/C(=O)c2ccc(OC)cc2)cc1	-0.32
Cc1ccc(C2C3=C(CCCC3=O)OC3=C2C(=O)CCC3)cc1	-0.121
Cc1ccc(C(=O)CCC(=O)Nc2cccc(C(F)(F)F)c2)cc1C	0.0595
Cc1nc2c(cc(Oc3ccc(S(=O)(=O)N4CCOCC4)cn3)c3ccsc32)s1	-0.255
COc1cc(C(=O)Nc2ccc(N3CCOCC3)cc2)ccc1OCc1c(C)noc1C	-0.221
CS(=O)(=O)Oc1ccc(/C=N/NC(=O)c2ccncc2)cc1	-0.147
Cn1c(N)c(C(=O)COC(=O)c2ccc(Br)o2)c(=O)n(C)c1=O	-0.0397
COc1ccc2cc3c(N)nn(C(=O)Cc4ccc(Cl)cc4)c3nc2c1	-0.0242
CCCc1[nH]n(-c2nc3ccccc3s2)c(=O)c1C=NCC(C)C	0.0416
C/C(=N\NC(=O)c1ccccc1)c1ccc(NC(=O)c2cccs2)cc1	-0.203
CCCCNC(=O)CC1SC(=NCC)N(CC)C1=O (centres undefined)	0.267
CC(=O)Nc1ccc(SC(C)C(=O)NC(N)=O)cc1 (centres undefined)	0.219
Cc1cc(Cl)ccc1OCC(=O)NCCCN1CCOCC1	-0.323
O=C(CCCn1c(=S)[nH]c2ccc(Br)cc2c1=O)NCC1CCCO1 (centres undefined)	0.917
Cc1cc(C)n(C(=O)c2ccc(C)c(F)c2F)n1	-0.238
CCN(CC)c1ccc2cc(S(=O)(=O)c3ccc(C)cc3)c(=O)oc2c1	-0.154
